Source: PubChem BioAssay AID1963576 (National Center for Advancing Translational Sciences (NCATS), 2024)
Out of some 46,000 compounds screened, about 60 (0.1%) were called active. Not shown: some 3% with an inconclusive outcome. The call rests on the fitted dose curve; in most records, active means well fitted inhibition curve with a large enough effect; inconclusive means small, poorly fitted or top-dose-only effect; inactive means no such curve, though single readings can be large or run the other way. Some of the results follow.

Assay: Primary qHTS assay for Inhibitors of ovarian cancer metastasis using an organotypic tumor microenvironment (TME) model. Further: nearly all actives have a fitted effect of over 65% in size.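 On activity change, negative = inhibition: plate controls were DMSO wells for no effect and tomatine positive control wells for full effect.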
Settings: SKOV3ip1-GFP adhesion/invasion on 3D omental model, fluorescence; series mostly up to 45.8 µM; activity change, negative = inhibition: at the top concentration
Summary of the method: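 qHTS, 4-pt dose (0.36-46 umol/L); SKOV3ip1-GFP, 1,200 cells/well, no FBS; primary omental fibroblast/mesothelial co-culture 48 h pre-grown; 2 h RT + 16 h 37 C; PBS wash, 4% PFA; GFP count 488/509 nm.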

Activity change, negative = inhibition, inactive:
Nc1nc2nc(-c3ccccc3)cc(=O)n2[nH]1 -1.57%
Cc1cccc(NS(=O)(=O)c2ccc3c(c2)n(C)c(=O)n3C)c1C -7.51%
COc1ccc(NC(=O)CN2CCCN(Cc3ccccc3)S2(=O)=O)cc1 0.0584%
Cc1ccc(NC(=O)C2CCN(S(=O)(=O)c3ccc4c(c3)CCCC(=O)N4)CC2)c(Br)c1 1.11%
COc1ccccc1N1CCN(c2ncc3c(n2)CCN(Cc2ccc(C)s2)C3)CC1 5.28%
CC[N+](CC)(CC)CCOc1cccc(OCC[N+](CC)(CC)CC)c1OCC[N+](CC)(CC)CC 21.5%
O=c1oc2ccccc2cc1-c1nc(-c2cccc(Cl)c2)cs1 2.94%
CN(C)CCNC(=O)c1ccc2nc(Cc3ccccc3)oc2c1 -1.06%
CCN(CC)C(=O)Cn1cc(SCC(=O)Nc2cc(OC)ccc2OC)c2ccccc21 7.81%
CCOC(=O)c1noc2ncn(Cc3ccc([N+](=O)[O-])cc3)c(=O)c12 -16%
COc1ccc(C(=O)NCC(c2ccc(N(C)C)cc2)N2CCOCC2)cc1 (stereo not drawn) 7.42%
CSc1ccc(CCNC(=O)c2c(C)nn(-c3ccc(F)cc3)c2-n2cccc2)cc1 5.68%
O=C(NCc1ccc(Cl)cc1)C1CCN(S(=O)(=O)c2ccc(F)cc2)CC1 0.72%
Cc1ccccc1C(=O)Nc1sc2c(c1C(=O)N1CCCCC1)CCC(C(C)(C)C)C2 (stereo not drawn) -8.41%
CCC(CC)C(=O)Nc1ccc2nc(SCC(=O)N3CCOCC3)sc2c1 -1.25%

outcome, inactive:
O=C(c1ccc2c(c1)N(Cc1ccccc1Cl)C(=O)c1ccccc1S2)N1CCCC1
CCc1cccc(NC(=O)Cn2c(-c3ccc(F)cc3)cc(C(C)=O)c2C)c1
CCc1ccccc1-n1c(SCC(=O)Nc2ccc(C)cc2)nc2n[nH]c(C)c2c1=N
CCCCNS(=O)(=O)c1ccc(NC(=O)c2c(-c3ccccc3)noc2C)cc1
O=C(CSc1nc2ccccc2nc1Cc1ccc(Cl)cc1)N1CCCCC1
Fc1ccc(CNc2nc(-c3ccc(Cl)cc3)cc(C(F)(F)F)n2)cc1
COc1ccc(Cl)cc1NC(=O)CSc1nc(-c2cccs2)cc(C(F)(F)F)n1
Cc1cccn2c(=O)cc(CSc3nnc(NC(=O)C(C)C)s3)nc12
COc1ccc(Cl)cc1NC(=O)CSc1cc(C)[nH]c(=O)n1
Cc1ccc(Cl)cc1N1CCN(C(=O)c2sc3nc4n(c(=O)c3c2C)CCC4)CC1
Cc1ccc(CSc2nc3ccc(NC(=O)CC(C)C)cc3s2)cc1
Cc1ccc(NC(=O)CSc2nncn2C)c(C)c1
O=C(Nc1cc(F)ccc1F)C1CCN(C(=O)c2cnn(-c3ccccc3)c2-n2cccc2)CC1
